Data from PubChem BioAssay AID463173 (ICCB-Longwood Screening Facility, Harvard Medical School, 2010).
The campaign covered roughly 52,000 compounds. About 1,700 (3.3%) were called active. Rule as the data show it: active = survival mostly below about 52% (no sharp cut-off); inactive = mostly above about 56%. The list shows a part of the results.

system: Wild type; assay: growth inhibition of S. aureus wild type versus tarO mutant, primary screen, teichoic acid synthesis inhibitors, RN4220, OD600 (AID 463173); conditions: S. aureus RN4220 wild type/DeltatarO growth, OD600, 18 h, stronger effect = lower value, screened at 18.75 µg/mL (by protocol)

| SMILES | survival |
| --- | --- |
| OCc1cc(CO)c(O)c(CCc2ccccc2)n1 | inactive: 92% |
| CCn1c(CSc2nc(C)cc(C)n2)nnc1SCc1ccccc1 | inactive: 110% |
| CCOc1ccc(CCNC(=O)c2cc3c(=O)[nH]c4ccc(C)cc4c3s2)cc1OCC | inactive: 65% |
| COc1ccc(-c2nc(SCC(=O)NCCc3ccc(OC)c(OC)c3)n[nH]2)cc1 | inactive: 72% |
| O=C(NC1CCCc2ccccc21)c1ccc2c(c1)sc1nc(-c3ccc(F)cc3)cn12 (configuration not stated) | inactive: 79% |
| O=C(CCCN1C(=O)C(c2ccccc2)Oc2cccnc21)Nc1ccc(Br)cc1F (configuration not stated) | inactive: 83% |
| COc1ccc2c(CNCCc3cccs3)c(C(=O)O)n(Cc3ccccc3)c2c1 | inactive: 90% |
| CCc1ccc2c(c1)NC(c1cccs1)=NC(c1ccc(F)cc1)=N2 | inactive: 63% |
| Cc1ccc(Cl)cc1NC(=O)C1CCC(CNS(=O)(=O)c2cccc3nsnc23)CC1 (configuration not stated) | inactive: 87% |
| CC(=O)N(Cc1cccnc1)c1nc2c(C)c(C)ccc2s1 | inactive: 71% |
| CCCC(=O)NCc1nc2cccnc2n1Cc1ccc(F)cc1 | inactive: 98% |
| Cc1cccc(Cn2nnc3c(=O)[nH]c(C4CCN(C(=O)c5ccccc5F)CC4)nc32)c1 | inactive: 83% |
| Cc1cccc(NC(=O)CSc2nc(=O)n(CCN3CCOCC3)c3c2CCC3)c1C | inactive: 85% |
| Cc1ccc(NC(=O)Cn2c(=O)n(Cc3ccc4c(c3)OCO4)c(=O)c3ccc(C(=O)NC4CCCCC4)cc32)cc1 | inactive: 80% |
| CCOC(=O)c1ccc(NC(=O)Cc2coc3cc(C)cc(C)c23)cc1 | inactive: 95% |
| O=C(Nc1cc(-c2nc3ccccc3o2)ccc1Cl)c1cccc2c(Cl)cccc12 | inactive: 64% |
| CCN(C(=O)CSc1nnc(C)n2c1cc1occc12)c1ccccc1 | inactive: 104% |
| CCOc1ccc(NC(=O)c2cc3c(=O)n4cccc(C)c4nc3s2)cc1 | inactive: 76% |
| CCOC(=O)c1c(-c2ccccc2)oc2ccc(NS(=O)(=O)c3ccccc3)cc12 | active: 7% |

| SMILES | survival |
| --- | --- |
| COc1ccc(S(=O)(=O)NCc2cccn2Cc2cccc(C)c2)cc1OC | inactive: 84% |
| CCCCc1nn2c(=O)cc(COC(=O)c3ccccc3NC(=O)C3CCCCC3)nc2s1 | inactive: 82% |
| COc1ccc(CNC(=O)c2cnc(N3CCCC3)nc2C)cc1 | inactive: 68% |
| O=C(CSc1cn(CC(=O)N2CCOCC2)c2ccccc12)Nc1ccccc1C(F)(F)F | inactive: 91% |
| Cc1cc([N+](=O)[O-])ccc1NC(=O)CSc1nccn1C | inactive: 135% |
| COc1cccc(NC(=O)N2C3CCC2CC(O)(c2cccnc2)C3)c1 (configuration not stated) | inactive: 112% |
| CCOC(=O)CSc1nc2c([nH]c3ccccc32)c(=O)n1-c1ccc(OCC)cc1 | inactive: 80% |
| COc1ccc(-c2c(C)c3ccc(O)c(CN4CCN(C)CC4)c3oc2=O)cc1OC | inactive: 74% |
| COc1ccc2c(c1)c1c(c(=O)n(-c3cccc(Cl)c3)c(=O)n1C)n2C | inactive: 70% |
| Cc1ccccc1C(=O)Nc1nc2c(s1)CC(C(C)(C)C)CC2 (configuration not stated) | inactive: 124% |
| COc1ccc(S(=O)(=O)c2cn(CC(=O)Nc3ccccc3)c3ccc(Cl)cc3c2=O)cc1 | inactive: 70% |
| Cc1cccc2sc(N(Cc3cccnc3)C(=O)C3CCCCC3)nc12 | inactive: 75% |
| COc1ccc(CSc2nc3ccncc3n2Cc2nc(-c3ccc(OC)c(OC)c3)oc2C)cc1 | inactive: 85% |
| Clc1cccc(-c2noc3ncnc(NC4CCCCC4)c23)c1 | inactive: 79% |
| COc1ccc(Br)cc1CNC(=O)CCC(=O)N1CCSc2ccccc21 | inactive: 65% |
| CN(C(=O)c1cccc(Nc2ccc(-c3ccc4c(c3)OCCO4)nn2)c1)C1CCCCC1 | inactive: 83% |
| COc1ccccc1CNC(=O)Nc1ccc2c(c1)N(C)C(=O)c1ccccc1S2 | inactive: 93% |
| O=C(CSc1nc2c([nH]c3ccccc32)c(=O)n1-c1ccc(F)cc1)N1CCCCCC1 | inactive: 65% |
| COc1cccc2cc(-c3nc(-c4cccs4)no3)c(=O)oc12 | inactive: 74% |

| SMILES | survival |
| --- | --- |
| CN1C(=O)C2CCCCN2c2ccc(C(=O)NCc3ccccc3Br)cc21 (configuration not stated) | inactive: 65% |
| COc1cc(NC(=O)CCc2c(C)nc3c(c(C)nn3-c3ccccc3)c2C)cc(OC)c1OC | inactive: 74% |
| CCSc1nnc(C2CCCN(CC(=O)Nc3nc(C)cs3)C2)n1C (configuration not stated) | inactive: 118% |
| O=C(Cn1cc(SCc2cccc(C(F)(F)F)c2)c2ccccc21)N1CCCCCC1 | inactive: 91% |
| COc1cccc(-c2cc(C(=O)NCCc3ccc(C)cc3)[nH]n2)c1 | inactive: 126% |
| CC(=O)c1c(C)n(-c2cccc(C)c2)c2ccc(OC(=O)COc3ccccc3)cc12 | inactive: 70% |
| Cc1ccc(NS(=O)(=O)c2c(C(=O)N3CCCCCC3)c(C)n(C)c2C)cc1F | inactive: 92% |
| CCOC(=O)c1c(C)c(C(=O)NCCc2ccc(OC)cc2)c(C)n1CC | inactive: 103% |
| CCOc1ccc(CNC(=O)Cn2nc(C)c3sc4ccccc4c3c2=O)cc1 | inactive: 121% |
| Clc1nc(Cl)nc(NCCC2=CCCCC2)n1 | inactive: 114% |
| Cc1ccc(C(c2sc3nc(-c4ccco4)nn3c2O)N2CCCCC2)cc1 (configuration not stated) | inactive: 66% |
| CC(=O)c1ccc(NC(=O)CSc2nc(-c3ccccc3F)nc3c2c(=O)n(C)c(=O)n3C)cc1 | inactive: 83% |
| C=Cc1ccc(Cn2c(=O)n(-c3ccccc3C)c(=O)c3c4c(sc32)CN(C(C)=O)CC4)cc1 | inactive: 65% |
| CCc1nn(CC(=O)Nc2c(C)cc(C)cc2C)c(=O)c2cc3sccc3n12 | inactive: 133% |
| Cc1ccc(N(C)S(=O)(=O)c2ccc3[nH]cc(C(=O)O)c(=O)c3c2)cc1C | inactive: 83% |
| COc1ccc(C)cc1NC(=O)CN1C(=O)CCc2cc(S(=O)(=O)N3CCOCC3)ccc21 | inactive: 128% |
| CCN(CC)N=Nc1ccc(S(=O)(=O)N=C(C)O)cc1 | inactive: 111% |
| Cc1ccc(C(=O)Nc2ccc3c(c2)N(C)C(=O)c2ccccc2S3)cc1F | inactive: 72% |
| CCN(Cc1ccccc1)C(=O)Nc1ccc2c(c1)N(C)C(=O)c1ccccc1S2 | inactive: 88% |
